Out of some 340,000 compounds screened, about 6,900 (2%) were called active. No stated cut-off is given here; in the data, active means inhibition above about 30%; inactive means below that, where a call was filed. The entries are a selection whose mix differs from that of the whole data set. Where no call is shown, the source filed none.
target: D(2) dopamine receptor (Homo sapiens) (UniProt P14416); test: HTS Assay for Allosteric Antagonists of the Human D2 Dopamine Receptor: Primary Screen for Antagonists; settings: HEK293 TREx D2 cells, calcium flux, dopamine EC80; at 10 µM; stronger effect = higher value; further: 0% is about no effect
Outline: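 In this primary screen, negative modulation is detected by tracking calcium flux after an EC80 dopamine challenge in inducible HEK293 T-REx D2 cells preexposed to test compound for 180 s.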

Sequence of UniProt P14416 (P14416 whole entry, looked up): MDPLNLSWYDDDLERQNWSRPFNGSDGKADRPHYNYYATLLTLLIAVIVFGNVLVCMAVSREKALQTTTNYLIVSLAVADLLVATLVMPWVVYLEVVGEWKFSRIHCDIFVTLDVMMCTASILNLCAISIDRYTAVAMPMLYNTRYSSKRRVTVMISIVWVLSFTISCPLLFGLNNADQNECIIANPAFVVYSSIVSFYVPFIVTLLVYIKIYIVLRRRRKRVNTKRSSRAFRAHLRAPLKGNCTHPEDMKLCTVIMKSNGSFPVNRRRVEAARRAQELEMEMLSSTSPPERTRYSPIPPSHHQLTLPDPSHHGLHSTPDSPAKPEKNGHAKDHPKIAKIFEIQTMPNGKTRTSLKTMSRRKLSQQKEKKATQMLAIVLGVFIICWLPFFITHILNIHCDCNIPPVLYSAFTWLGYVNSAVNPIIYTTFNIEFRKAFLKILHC

CCOC(=O)C1CCN(S(=O)(=O)CCNC(=O)c2ccc(F)cc2)CC1 was tested, and the inhibition was active: 30.3%.
With O=S(=O)(c1ccsc1)N1CC=C(c2ccccc2)CC1 the inhibition was active: 34.7%.
For Cn1c(=O)c([N+](=O)[O-])c(NCCc2ccccc2)c2ccccc21, the inhibition was active: 38%.
With CC(C)Cc1nnc(NS(=O)(=O)Cc2ccccc2)s1 the inhibition was active: 32%.
In the case of COc1ccccc1N1CCN(C2CCN(C(=O)COc3cccc(C)c3)CC2)CC1, the inhibition is reported as active: 69.4%.
O=C(c1ccc2c(c1)OCCO2)C1CCN(S(=O)(=O)c2cccc(F)c2)CC1 was tested, and the inhibition was active: 61.3%.
In the case of COc1ccccc1C(=O)N/N=C/C(C)=C/c1ccccc1, the inhibition is reported as active: 74.6%.
In the case of CCCNC(=O)Cn1cc(S(=O)(=O)N2CCCC2)c(S(=O)(=O)N2CCCC2)c1, the inhibition is reported as active: 37.5%.
With COCCSc1ccccc1C(=O)NCC1CCCO1 (stereo not given) the inhibition was active: 34.4%.
With O=C(c1ccc(Cl)cc1)c1coc2ccc(O)cc12 the inhibition was active: 34.7%.
CCc1cccc(NC(=O)COC(=O)/C=C/c2cccs2)c1 was tested, and the inhibition was active: 31.2%.
In the case of COc1ccccc1N1CCN(CC(O)COc2ccc3c(c2)CCC3)CC1 (stereo not given), the inhibition is reported as active: 80.2%.
CCN(CC)CCCNC(=S)N1CCN(c2nc3ccccc3n2CC)CC1 was tested, and the inhibition was active: 47.7%.
In the case of CC1CC(OCC(O)CN2CCOCC2)CC(C)(C)C1 (stereo not given), the inhibition is reported as active: 45.8%.
With Cc1ccccc1NC(=O)c1ccc(NC(=O)c2ccco2)cc1 the inhibition was active: 44.8%.
In the case of COc1cc(Br)cc(/C=N/N(CCO)C2=NS(=O)(=O)c3ccccc32)c1OC, the inhibition is reported as active: 38%.

Point of comparison: COc1ccc(Cl)cc1NC(=O)Cc1coc2c(C)c(C)ccc12, inhibition 4.22%. Against it:
- Cn1c(=O)c2c(SCC(=O)NCc3ccc(F)cc3)nc(-c3ccccc3Cl)nc2n(C)c1=O — higher, 7.2%
- CCOc1ccc(NC(=O)c2sc3ccccc3c2Cl)cc1 — higher, 17.1%
- COc1ccc(-c2noc(-c3ccc(C)cc3Cl)n2)cc1OC — lower, -18.1%
- COc1ccc(C2CC(=O)Nc3c2c(=O)n(C)c2nc4ccccc4n32)cc1 (stereo not given) — higher, 4.33%
- CS(=O)(=O)n1nc(-c2ccco2)nc1NCc1ccccc1Cl — lower, 2.3%
- COc1ccc(C(=O)c2cn(Cc3cccc(C)c3)c3cc4c(cc3c2=O)OCO4)cc1 — higher, 7.47%
- COc1cc(Cl)c(C)cc1NC(=O)CSc1cc(-c2ccccc2)nc(C)n1 — higher, 9.81%
- COc1ccc(CC(=O)NCCc2csc(-c3ccc(C(F)(F)F)cc3)n2)cc1 — higher, 4.27%
- CCc1ccccc1NC(=O)Cn1c(=O)n(CC(=O)NCCc2ccccc2)c(=O)c2ccccc21 — lower, -9.07%
- CCOC(=O)c1[nH]c(C)c(C(=O)NCc2cccc(OC)c2)c1C — higher, 25.8%
- CCCCNC(=O)CCCn1c(=O)c2ccccc2n(Cc2c(C)cc(C)cc2C)c1=O — higher, 9.93%
- COC(=O)N1CCCc2cc(S(=O)(=O)N3CCN(c4ccccc4)CC3)ccc21 — lower, -15.7%
- CN(C)c1ccc(CNC(=O)c2cnc3sc(N4CCCCCC4)nn3c2=O)cc1 — higher, 8.18%
- CCOC(=O)c1cccc(NC(=O)CC2C(=O)N(c3ccc(C)cc3)C(=O)N2Cc2cccc(OC)c2)c1 (stereo not given) — higher, 13.7%
- COc1cc(Cl)c(C)cc1NC(=O)CSc1nc2c(c(=O)[nH]1)CCCC2 — higher, 4.86%
- Cc1cccc(Cc2c(C)nc3nc(SCc4ccccc4Cl)nn3c2C)c1 — lower, 0.865%
- Cc1ccc(C)c(Cn2c(=O)n(CCC(=O)NCc3ccc4c(c3)OCO4)c(=O)c3sccc32)c1 — higher, 12.1%
- CCOc1ccc(OCC)c(NC(=O)CCc2nc3cccnc3n2Cc2cccs2)c1 — lower, 1.91%
- COc1ccc(-c2nc(C)c(CCNC(=O)c3c(F)cccc3F)s2)cc1 — higher, 28%
- O=C(Nc1ccccc1O)c1cc(S(=O)(=O)N2CCCC2)ccc1Cl — higher, 11.6%
- Cc1ccc(Cl)cc1NC(=O)NCc1cccn1Cc1ccc(F)cc1 — lower, -4.89%
- Cc1ccc2nc(-c3ccc(NC(=O)c4ccccc4S(C)(=O)=O)cc3)sc2c1 — lower, -2.33%
- COc1ccc2c(c1)c1c(c(=O)n(-c3ccc(OC)c(OC)c3)c(=O)n1CC(=O)N1CCCC1)n2C — lower, -6.43%
- Cc1ccc(NC(=O)N2CCN(c3nnc(C)c4c(C)n(-c5ccc(Cl)cc5)nc34)CC2)c(C)c1 — lower, -10.6%
- Cc1ccc(CNC(=O)CSc2ncc(S(=O)(=O)c3ccc(C)c(Cl)c3)c(=O)[nH]2)cc1 — lower, -9.7%
- COC(=O)c1ccccc1NC(=O)c1cc(C)nc2c1c(C)nn2-c1ccc(C)cc1 — higher, 7.77%
- COc1cc(OC)c(NC(=O)n2ncc3cc(Cl)ccc32)cc1Cl — lower, -9.09%
- COc1ccc(OC)c(NC(=O)CSC2=Nc3ccccc3C3=NC(CC(=O)NCc4ccc(F)cc4)C(=O)N23)c1 (stereo not given) — higher, 16.5%
- COc1ccc(C2CC(=O)c3c([nH]c(C(=O)OC4CCCCCC4)c3C)C2)cc1 (stereo not given) — higher, 21%
- COc1cccc(OCC(=O)NC2CC(=O)N(c3ccc4c(c3)OCCO4)C2)c1 (stereo not given) — lower, -19%
- O=C(OCc1ccco1)c1ccc2c(c1)N(Cc1cccc(F)c1)C(=O)c1ccccc1S2 — lower, -15%
- COc1ccc(Br)c(C(=O)Nc2cc3c(cc2N2CCCC2)n(C)c(=O)c(=O)n3C)c1 — lower, -9.36%
- CCOc1ccccc1NC(=O)CC(c1ccc(F)cc1)N1Cc2ccccc2C1=O (stereo not given) — higher, 10.6%
- Cc1ccc(-c2cc(C(=O)OCC(=O)c3ccccc3)c3cccc(Cl)c3n2)cc1 — lower, -4.09%
- CCC(Sc1nc2ccccc2c2nc(CCn3c(C)nc4ccccc43)nn12)C(=O)Nc1ccc(F)cc1 (stereo not given) — lower, -17%
- O=C(CSc1c2c(nc3ccc(Cl)cc13)CCCC2)NCc1ccccc1Cl — higher, 19.6%
- COc1ccc(CCNC(=O)c2cc(=O)c3cc(C)cc(C)c3o2)cc1OC — lower, -5.01%
- COc1ccc(OCCn2nnc3sc4c(c3c2=O)CCC(C(C)(C)C)C4)cc1 (stereo not given) — higher, 17%
- CC1CCN(c2nc3c(-c4cccc(Br)c4)nnn3c3ccccc23)CC1 — lower, -14.1%
- CCc1ccc(-n2nc3cc(C)c(NC(=O)c4ccccc4C)cc3n2)cc1 — lower, 3.48%
- CCOc1ccc(-c2c(C)nn3c(C)c(C(=O)NCc4ccc(Cl)cc4)cnc23)cc1OCC — lower, -13.1%
- CCC(NC(=O)Nc1cc(Cl)ccc1OC)c1c(-n2cccc2)sc2c1CCN(C)C2 (stereo not given) — lower, -4.23%
- CCCCCn1c(=O)[nH]c2cc(C(=O)NCCN(C)CCCC)ccc2c1=O — lower, -13.9%
- COc1ccc(CNC(=O)CCc2c(C)nn(-c3ccc(N4CCCCC4)nn3)c2C)cc1 — lower, 0.846%
- CCCCNC(=O)c1cccc(-n2cnc3cccnc32)c1C — higher, 8.59%
- CC1CCCCN1C(=O)c1ccc2c(c1)N(Cc1cccc(Cl)c1)C(=O)c1ccccc1S2=O (stereo not given) — higher, 7.62%
- Cc1cc(N(C)Cc2ccccc2)n2nc(-c3ccc(C(C)(C)C)cc3)nc2n1 — lower, -1.28%
- CCc1cccc(NC(=O)Cn2c(=O)c(C(F)(F)F)nc3ccccc32)c1 — lower, -0.637%
- Cc1cccc(CSc2nc3cc(C(=O)NC4CCCC4)ccc3c(=O)n2Cc2ccccc2)c1 — lower, -11.8%
- Cc1cc(C)c2c(=O)cc(C(=O)Nc3nc4ccc(F)cc4s3)oc2c1 — lower, -0.698%
- CCCN(CCC)CC(O)Cn1cc(/C=C/C(=O)c2ccc(OC)cc2)c2ccccc21 (stereo not given) — higher, 16.8%
- CCC(CC)C(=O)Nc1c(C(=O)N2CCN(c3ccccc3)CC2)oc2ccccc12 — lower, -28.6%
- COc1cccc(-c2cc(C(=O)N3CCN(c4ccccc4OC)CC3)no2)c1 — lower, 2.79%
- CCc1ccc(NC(=O)c2sc3nc4c(cc3c2N)CN(CC)CC4)cc1 — lower, -10.2%
- COC(=O)c1ccc(NC(=O)CCc2c(C)nn(-c3ccc(N4CCOCC4)nn3)c2C)cc1 — lower, 2.4%
- O=C(Nc1ccc(F)cc1)c1ccc(Cn2nc(N3CCN(c4ccccc4)CC3)ccc2=O)o1 — lower, -2.22%
- COc1ccc(CCNc2nc(-c3ccc(Cl)cc3)cc(C(F)(F)F)n2)cc1OC — higher, 15.3%
- CCOC(=O)c1c(C)[nH]c(C)c1S(=O)(=O)N1CCC(C(=O)N2CCN(c3cccc(C)c3C)CC2)CC1 — higher, 5.47%
- COc1ccccc1-c1nc2c(c(SCc3ccc(F)cc3Cl)n1)Cc1c(CO)cnc(C)c1O2 — lower, -2.84%
- COc1ccccc1C(=O)Nc1c(C(=O)N2CCN(c3ccc(F)cc3)CC2)oc2ccccc12 — lower, -9.7%
- Cc1ccc2c(=O)cc(C(=O)N(Cc3ccccc3Cl)C3CCS(=O)(=O)C3)oc2c1 (stereo not given) — higher, 6.49%
- CCN1CCN(CCCNC(=O)Cn2c(-c3cccs3)cc3ccccc32)CC1 — lower, -4.63%
- COc1ccc(-c2cc(-c3ccccc3)c(C#N)c(SCC(O)CS(=O)(=O)Cc3ccccc3)n2)cc1 (stereo not given) — lower, -1.24%
- CC(O)CNC(=O)C(=O)Nc1c2c(nn1-c1ccc(Cl)cc1)CSC2 (stereo not given) — higher, 10.6%
- COc1ccc(NC(=O)C2CCCN(C(=O)c3cnn(-c4ccccc4)c3-n3cccc3)C2)cc1 (stereo not given) — lower, 2.94%
- CCOc1ccc(CCNC(=O)CS(=O)(=O)Cc2nc(-c3cccc(Cl)c3)oc2C)cc1 — lower, -6.81%
- Cc1ccc(C)c(NC(=O)Cn2c(=O)n(-c3ccccc3C)c(=O)c3c2c2cc(C)ccc2n3C)c1 — lower, -7.1%
- CC(C)n1cc2c(c1-c1ccccc1Cl)c(=O)n(C)c(=O)n2C — lower, -3.4%
- Cc1cccc(C(=O)Nc2cccc(OCc3cc(=O)n4cc(C)sc4n3)c2)c1 — lower, -18.2%
- Cc1ccc(C(C)C)c(OCC(=O)NCC2(N3CCOCC3)CCCCC2)c1 — lower, -15.1%
- Cc1ccc(-n2cc3c(c2-c2ccccc2Br)c(=O)n(C)c(=O)n3C)cc1N — lower, 2.25%
- Cc1ccc(C(=O)NCC(=O)OCc2cc(=O)n3c(C)csc3n2)cc1 — higher, 10.9%
- Cc1ccc(-n2nc3cc(C)c(NC(=O)COc4ccccc4)cc3n2)cc1 — lower, 0.174%
- CCOC(=O)CCN(c1ccccc1)S(=O)(=O)c1cc(-c2cc(C)no2)ccc1C — lower, -3.3%
- Cc1cn(C)c(CC(=O)N2CCN(c3cccc(C(F)(F)F)c3)CC2)c1C(=O)O — lower, -6.92%
- CCc1cc2c(cc3c(=O)n(CC(=O)NC4CCCCC4)nc(CC)n32)s1 — lower, -7.84%
- O=C(NCC(c1cccnc1)N1CCc2ccccc21)c1ccc(F)c(F)c1 (stereo not given) — higher, 20.1%
- Cc1cc(C)c2oc(C(=O)Nc3c(C)n(C)n(-c4ccccc4)c3=O)cc(=O)c2c1 — lower, 0.151%

Source: PubChem BioAssay AID485344 (National Center for Advancing Translational Sciences (NCATS), 2010)
